Values marked as one replicate rest on one cluster of the flow cell; about a third of the high ones do not repeat.
test system: ATP; assay: switch fluorescence ratio, 500 uM ATP over buffer (Cy3 cluster intensity, sum of 5 cycles each) (fold (ratio)); higher = stronger signal-on switching upon ATP binding; sequences stand for … in TCGTCGGCAGCGTCAGATGTGTATAAGAGACAGTTTTTTTTTTTTTTTTTTTTTTTTT…TC; settings: aptamer strand: ATP DNA aptamer (quencher-CACCTGGGGGAGTATTGCGGAGGAAGG + anchor), 100 nM annealed; ATP concentration: 500 uM; one replicate
Procedure, shortened: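 Clusters with intensities outside 100-1000 RFU were excluded. The remaining Cy3-labelled switching-strand clusters on a modified Illumina MiSeq flow-cell had been annealed to 100 nM quencher-labelled ATP aptamer and imaged in selection buffer, then after 15 min with 500 uM ATP at 22 °C, for five cycles separated by NaOH stripping and re-annealing. The fluorescence ratio, averaged per switch-domain sequence, is each cluster's summed target-cycle Cy3 intensity over its summed buffer-cycle Cy3 intensity.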
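Further: ATP exposure 15 min at 22 °C before imaging.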

Sequence | switch fluorescence ratio
CCTTTTGATT | 1.03
CGAAAACATC | 1.01
CGAAAAGGAC | 0.944
CGAAAATGCA | 0.961
CGAAACAATT | 1.01
CGAAACAGCG | 0.988
CGAAACATCT | 1.02
CGAAAGACGT | 1.01
CGAAATTGGT | 0.961
CGAACAGAC | 1.23
CGAACATCCC | 1.07
CGAACATCGG | 0.927
CGAACATCTT | 0.99
CGAACCATTT | 1.05
CGAACCGCGG | 0.977
CGAACTCGGG | 1.03
CGAAGAATGT | 1.02
CGAAGACGGA | 1.02
CGAAGATTAA | 0.971
CGAAGGCTAC | 6.26
CGAAGGGGGT | 1.01
CGAAGGTCGT | 1.03
CGAAGGTTGT | 0.994
CGAAGTTTGA | 0.967
CGAATACCGG | 1.02
CGAATATCCA | 1.01

Sequence | switch fluorescence ratio
CGAATCAAAG | 1.01
CGAATCCCTA | 0.966
CGAATGAGA | 1.01
CGAATGAGTT | 0.944
CGAATGGGTG | 0.978
CGAATGTATT | 0.994
CGAATTACCT | 1.25
CGAATTCCG | 0.842
CGAATTCGTA | 1.02
CGACAAAAGC | 4.08
CGACAACGAA | 1.04
CGACAAGGAG | 1.02
CGACAATCGG | 1.01
CGACACGTCA | 1.13
CGACAGAGGG | 0.99
CGACAGGTAC | 2.38
CGACAGTAGA | 1.05
CGACCAACTC | 2.24
CGACCACTCG | 1.02
CGACCAGACG | 1.06
CGACCCCGAC | 1.58
CGACCCCGTA | 1.06
CGACCCGACC | 1.25
CGACCCTTCA | 1.57
CGACCGGCTG | 1.04
CGACCGTAAT | 5.04

Sequence | switch fluorescence ratio
CGACGGACTG | 1.07
CGACGGAGGT | 1.01
CGACGGAGTC | 1.06
CGACGTTATT | 1.39
CGACTAGTCG | 0.955
CGACTATTA | 1.03
CGACTGACTA | 1.14
CGACTGGAGG | 1.01
CGACTGGCAT | 1.86
CGACTTAGGC | 0.916
CGACTTGCGA | 1.13
CGACTTGCTG | 1.05
CGAGAACCGC | 1.06
CGAGAACTGT | 1.02
CGAGAGGGTA | 0.916
CGAGATCGCG | 0.967
CGAGATTGCG | 0.957
CGAGCAACGT | 1.11
CGAGCACGTC | 1.1
CGAGCCCTCG | 1.02
CGAGCCGTTC | 0.967
CGAGCTATTC | 3.54
CGAGCTTACT | 1.86
CGAGGATTAT | 1.03
CGAGGCACTG | 1.08

From the supplement of paper PMC10126150
